# Test results as given in PMC12820563, “FoxP3 forms a head-to-head dimer in vivo and stabilizes its multimerization on adjacent microsatellites”.
# Some of the results follow.
# Target: T1, MBP-FoxP1dN (Mus musculus, UniProt P58462 326-579)
# T1 sequence: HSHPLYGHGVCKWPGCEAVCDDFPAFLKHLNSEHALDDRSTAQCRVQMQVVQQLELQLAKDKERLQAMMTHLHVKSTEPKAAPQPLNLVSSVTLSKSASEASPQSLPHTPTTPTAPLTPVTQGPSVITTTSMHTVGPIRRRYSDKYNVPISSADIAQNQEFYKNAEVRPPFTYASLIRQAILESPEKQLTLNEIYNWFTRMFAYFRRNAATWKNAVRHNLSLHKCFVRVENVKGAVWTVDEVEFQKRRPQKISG
# Assay: PD-seq (MBP pull-down with sequencing); 20 mM Tris-HCl pH 7.5, 100 mM NaCl, 1.5 mM MgCl2, 0.4 uM protein, 0.1 uM dsDNA library, 30 min, room temperature, amylose pull-down; high values mean tight binding
# Conditions: protein: recombinant; tags: His6-MBP; chain copies: 2; dsDNA, one strand shown
# Outline: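 Amylose resin was used to capture complexes formed during 30 min at room temperature in Tris pH 7.5 buffer with NaCl and MgCl2 between 0.4 µM His6-MBP-tagged mouse FoxP3 or FoxP1 fragment lacking the N-terminus, expressed in E. coli, and 0.1 µM Klenow-filled double-stranded degenerate DNA library. After three washes, the DNA was released with proteinase K, barcoded by PCR and sequenced on Illumina. Binding is pooled-replicate reads-per-million enrichment, pull-down over input.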
row,Sequence,binding signal
1,GATGATTGTTCTCCCAGCTGATGAATTCATTGCGTCGAGTAAACAAATTTTCCTAATCTTTCTGTTCAAGCGCCATCTAC,1 RPM ratio (pull-down/input)
2,GATGATTGTTCTCCCAGCTGATGAATTTGGAGATTCGAGTAAACAAATTTTCCTAATCTTTCTGTTCAAGCGCCATCTAC,0.847 RPM ratio (pull-down/input)
3,GATGATTGTTCTCCCAGCTGATGAATTCTGTAGCTCGAGTAAACAAATTTTCCTAATCTTTCTGTTCAAGCGCCATCTAC,0.924 RPM ratio (pull-down/input)
4,GATGATTGTTCTCCCAGCTGATGAATTGGCCCAGTCGAGTAAACAAATTTTCCTAATCTTTCTGTTCAAGCGCCATCTAC,0.821 RPM ratio (pull-down/input)
5,GATGATTGTTCTCCCAGCTGATGAATTCTGAAGATCGAGTAAACAAATTTTCCTAATCTTTCTGTTCAAGCGCCATCTAC,0.82 RPM ratio (pull-down/input)
6,GATGATTGTTCTCCCAGCTGATGAATTCGGCTGATCGAGTAAACAAATTTTCCTAATCTTTCTGTTCAAGCGCCATCTAC,0.839 RPM ratio (pull-down/input)
7,GATGATTGTTCTCCCAGCTGATGAATTCATGTGATCGAGTAAACAAATTTTCCTAATCTTTCTGTTCAAGCGCCATCTAC,0.922 RPM ratio (pull-down/input)
8,GATGATTGTTCTCCCAGCTGATGAATTGTTGACCTCGAGTAAACAAATTTTCCTAATCTTTCTGTTCAAGCGCCATCTAC,1.88 RPM ratio (pull-down/input)
9,GATGATTGTTCTCCCAGCTGATGAATTTCTTCGCTCGAGTAAACAAATTTTCCTAATCTTTCTGTTCAAGCGCCATCTAC,0.783 RPM ratio (pull-down/input)
10,GATGATTGTTCTCCCAGCTGATGAATTCGACAATTCGAGTAAACAAATTTTCCTAATCTTTCTGTTCAAGCGCCATCTAC,1.02 RPM ratio (pull-down/input)
11,GATGATTGTTCTCCCAGCTGATGAATTTAAGCTTTCGAGTAAACAAATTTTCCTAATCTTTCTGTTCAAGCGCCATCTAC,0.923 RPM ratio (pull-down/input)
12,GATGATTGTTCTCCCAGCTGATGAATTCGGTCATTCGAGTAAACAAATTTTCCTAATCTTTCTGTTCAAGCGCCATCTAC,0.813 RPM ratio (pull-down/input)
13,GATGATTGTTCTCCCAGCTGATGAATTTCTATAGTCGAGTAAACAAATTTTCCTAATCTTTCTGTTCAAGCGCCATCTAC,0.931 RPM ratio (pull-down/input)
14,GATGATTGTTCTCCCAGCTGATGAATTGAGGTCGTCGAGTAAACAAATTTTCCTAATCTTTCTGTTCAAGCGCCATCTAC,0.833 RPM ratio (pull-down/input)
15,GATGATTGTTCTCCCAGCTGATGAATTTGTCGTCTCGAGTAAACAAATTTTCCTAATCTTTCTGTTCAAGCGCCATCTAC,1.07 RPM ratio (pull-down/input)
16,GATGATTGTTCTCCCAGCTGATGAATTGAGCGCATCGAGTAAACAAATTTTCCTAATCTTTCTGTTCAAGCGCCATCTAC,1.19 RPM ratio (pull-down/input)
17,GATGATTGTTCTCCCAGCTGATGAATTTTATGCTTCGAGTAAACAAATTTTCCTAATCTTTCTGTTCAAGCGCCATCTAC,1.02 RPM ratio (pull-down/input)
18,GATGATTGTTCTCCCAGCTGATGAATTCCCCGTGTCGAGTAAACAAATTTTCCTAATCTTTCTGTTCAAGCGCCATCTAC,0.769 RPM ratio (pull-down/input)
19,GATGATTGTTCTCCCAGCTGATGAATTGAGATACTCGAGTAAACAAATTTTCCTAATCTTTCTGTTCAAGCGCCATCTAC,0.953 RPM ratio (pull-down/input)
20,GATGATTGTTCTCCCAGCTGATGAATTACTACCCTCGAGTAAACAAATTTTCCTAATCTTTCTGTTCAAGCGCCATCTAC,1.01 RPM ratio (pull-down/input)
21,GATGATTGTTCTCCCAGCTGATGAATTCTAAAGTTCGAGTAAACAAATTTTCCTAATCTTTCTGTTCAAGCGCCATCTAC,0.849 RPM ratio (pull-down/input)

row,Sequence,binding signal
1,GATGATTGTTCTCCCAGCTGATGAATTCGTTATGTCGAGTAAACAAATTTTCCTAATCTTTCTGTTCAAGCGCCATCTAC,1.04 RPM ratio (pull-down/input)
2,GATGATTGTTCTCCCAGCTGATGAATTTAGCGAATCGAGTAAACAAATTTTCCTAATCTTTCTGTTCAAGCGCCATCTAC,0.991 RPM ratio (pull-down/input)
3,GATGATTGTTCTCCCAGCTGATGAATTTGAATATTCGAGTAAACAAATTTTCCTAATCTTTCTGTTCAAGCGCCATCTAC,0.953 RPM ratio (pull-down/input)
4,GATGATTGTTCTCCCAGCTGATGAATTAGCAAATTCGAGTAAACAAATTTTCCTAATCTTTCTGTTCAAGCGCCATCTAC,0.949 RPM ratio (pull-down/input)
5,GATGATTGTTCTCCCAGCTGATGAATTGCGTTAATCGAGTAAACAAATTTTCCTAATCTTTCTGTTCAAGCGCCATCTAC,1.22 RPM ratio (pull-down/input)
6,GATGATTGTTCTCCCAGCTGATGAATTTAGCGTTTCGAGTAAACAAATTTTCCTAATCTTTCTGTTCAAGCGCCATCTAC,0.93 RPM ratio (pull-down/input)
7,GATGATTGTTCTCCCAGCTGATGAATTGTCGTATTCGAGTAAACAAATTTTCCTAATCTTTCTGTTCAAGCGCCATCTAC,1.14 RPM ratio (pull-down/input)
8,GATGATTGTTCTCCCAGCTGATGAATTATCATGTTCGAGTAAACAAATTTTCCTAATCTTTCTGTTCAAGCGCCATCTAC,1.07 RPM ratio (pull-down/input)
9,GATGATTGTTCTCCCAGCTGATGAATTGCCGATATCGAGTAAACAAATTTTCCTAATCTTTCTGTTCAAGCGCCATCTAC,1.06 RPM ratio (pull-down/input)
10,GATGATTGTTCTCCCAGCTGATGAATTGCGACTCTCGAGTAAACAAATTTTCCTAATCTTTCTGTTCAAGCGCCATCTAC,0.997 RPM ratio (pull-down/input)
11,GATGATTGTTCTCCCAGCTGATGAATTTAATAGGTCGAGTAAACAAATTTTCCTAATCTTTCTGTTCAAGCGCCATCTAC,0.825 RPM ratio (pull-down/input)
12,GATGATTGTTCTCCCAGCTGATGAATTTAGCATCTCGAGTAAACAAATTTTCCTAATCTTTCTGTTCAAGCGCCATCTAC,1.26 RPM ratio (pull-down/input)
13,GATGATTGTTCTCCCAGCTGATGAATTACATCGCTCGAGTAAACAAATTTTCCTAATCTTTCTGTTCAAGCGCCATCTAC,1.07 RPM ratio (pull-down/input)
14,GATGATTGTTCTCCCAGCTGATGAATTGCATGCGTCGAGTAAACAAATTTTCCTAATCTTTCTGTTCAAGCGCCATCTAC,1.24 RPM ratio (pull-down/input)
15,GATGATTGTTCTCCCAGCTGATGAATTCACGATTTCGAGTAAACAAATTTTCCTAATCTTTCTGTTCAAGCGCCATCTAC,0.89 RPM ratio (pull-down/input)
16,GATGATTGTTCTCCCAGCTGATGAATTGGGGTTGTCGAGTAAACAAATTTTCCTAATCTTTCTGTTCAAGCGCCATCTAC,0.968 RPM ratio (pull-down/input)
17,GATGATTGTTCTCCCAGCTGATGAATTTGACCGATCGAGTAAACAAATTTTCCTAATCTTTCTGTTCAAGCGCCATCTAC,0.841 RPM ratio (pull-down/input)
18,GATGATTGTTCTCCCAGCTGATGAATTTCACGTATCGAGTAAACAAATTTTCCTAATCTTTCTGTTCAAGCGCCATCTAC,0.965 RPM ratio (pull-down/input)
19,GATGATTGTTCTCCCAGCTGATGAATTTGCATAGTCGAGTAAACAAATTTTCCTAATCTTTCTGTTCAAGCGCCATCTAC,1.01 RPM ratio (pull-down/input)
20,GATGATTGTTCTCCCAGCTGATGAATTGGTCGCCTCGAGTAAACAAATTTTCCTAATCTTTCTGTTCAAGCGCCATCTAC,0.913 RPM ratio (pull-down/input)
21,GATGATTGTTCTCCCAGCTGATGAATTGACTCTGTCGAGTAAACAAATTTTCCTAATCTTTCTGTTCAAGCGCCATCTAC,1.01 RPM ratio (pull-down/input)

row,Sequence,binding signal
1,GATGATTGTTCTCCCAGCTGATGAATTGTAGCAATCGAGTAAACAAATTTTCCTAATCTTTCTGTTCAAGCGCCATCTAC,1.25 RPM ratio (pull-down/input)
2,GATGATTGTTCTCCCAGCTGATGAATTTTGTGCTTCGAGTAAACAAATTTTCCTAATCTTTCTGTTCAAGCGCCATCTAC,1.09 RPM ratio (pull-down/input)
3,GATGATTGTTCTCCCAGCTGATGAATTAACACATTCGAGTAAACAAATTTTCCTAATCTTTCTGTTCAAGCGCCATCTAC,1.18 RPM ratio (pull-down/input)
4,GATGATTGTTCTCCCAGCTGATGAATTTCACCAGTCGAGTAAACAAATTTTCCTAATCTTTCTGTTCAAGCGCCATCTAC,0.84 RPM ratio (pull-down/input)
5,GATGATTGTTCTCCCAGCTGATGAATTCCATTGATCGAGTAAACAAATTTTCCTAATCTTTCTGTTCAAGCGCCATCTAC,0.924 RPM ratio (pull-down/input)
6,GATGATTGTTCTCCCAGCTGATGAATTTGCGCGATCGAGTAAACAAATTTTCCTAATCTTTCTGTTCAAGCGCCATCTAC,0.992 RPM ratio (pull-down/input)
7,GATGATTGTTCTCCCAGCTGATGAATTGAGTGTCTCGAGTAAACAAATTTTCCTAATCTTTCTGTTCAAGCGCCATCTAC,0.863 RPM ratio (pull-down/input)
8,GATGATTGTTCTCCCAGCTGATGAATTGAAGTAATCGAGTAAACAAATTTTCCTAATCTTTCTGTTCAAGCGCCATCTAC,1.4 RPM ratio (pull-down/input)
9,GATGATTGTTCTCCCAGCTGATGAATTACTCCTGTCGAGTAAACAAATTTTCCTAATCTTTCTGTTCAAGCGCCATCTAC,0.897 RPM ratio (pull-down/input)
10,GATGATTGTTCTCCCAGCTGATGAATTCTTCAGATCGAGTAAACAAATTTTCCTAATCTTTCTGTTCAAGCGCCATCTAC,0.891 RPM ratio (pull-down/input)
11,GATGATTGTTCTCCCAGCTGATGAATTTATCTATTCGAGTAAACAAATTTTCCTAATCTTTCTGTTCAAGCGCCATCTAC,1.24 RPM ratio (pull-down/input)
12,GATGATTGTTCTCCCAGCTGATGAATTGCAGTGATCGAGTAAACAAATTTTCCTAATCTTTCTGTTCAAGCGCCATCTAC,1.11 RPM ratio (pull-down/input)
13,GATGATTGTTCTCCCAGCTGATGAATTAATTTTCTCGAGTAAACAAATTTTCCTAATCTTTCTGTTCAAGCGCCATCTAC,0.924 RPM ratio (pull-down/input)
14,GATGATTGTTCTCCCAGCTGATGAATTGCCACACTCGAGTAAACAAATTTTCCTAATCTTTCTGTTCAAGCGCCATCTAC,1.1 RPM ratio (pull-down/input)
15,GATGATTGTTCTCCCAGCTGATGAATTGTGCAAGTCGAGTAAACAAATTTTCCTAATCTTTCTGTTCAAGCGCCATCTAC,1.03 RPM ratio (pull-down/input)
16,GATGATTGTTCTCCCAGCTGATGAATTTTTCTTATCGAGTAAACAAATTTTCCTAATCTTTCTGTTCAAGCGCCATCTAC,1.1 RPM ratio (pull-down/input)
17,GATGATTGTTCTCCCAGCTGATGAATTGTTGCTCTCGAGTAAACAAATTTTCCTAATCTTTCTGTTCAAGCGCCATCTAC,1.39 RPM ratio (pull-down/input)
18,GATGATTGTTCTCCCAGCTGATGAATTGACCCCGTCGAGTAAACAAATTTTCCTAATCTTTCTGTTCAAGCGCCATCTAC,0.918 RPM ratio (pull-down/input)
19,GATGATTGTTCTCCCAGCTGATGAATTCAAGGGTTCGAGTAAACAAATTTTCCTAATCTTTCTGTTCAAGCGCCATCTAC,0.756 RPM ratio (pull-down/input)
20,GATGATTGTTCTCCCAGCTGATGAATTATAAAACTCGAGTAAACAAATTTTCCTAATCTTTCTGTTCAAGCGCCATCTAC,0.885 RPM ratio (pull-down/input)
21,GATGATTGTTCTCCCAGCTGATGAATTCGTCGCATCGAGTAAACAAATTTTCCTAATCTTTCTGTTCAAGCGCCATCTAC,1.06 RPM ratio (pull-down/input)
